# Assay results: PubChem BioAssay AID624417 (National Center for Advancing Translational Sciences (NCATS), 2012)
# Screen size: about 410,000 compounds; about 6,400 (1.6%) were called active. The inconclusive results got no clear call from the source; some entries with a clear call stand among them for comparison. Calls follow the shape of the dose curve; as a rule, active = well fitted inhibition curve with a large enough effect; inconclusive = small, poorly fitted or top-dose-only effect; inactive = no such curve, though single readings can be large or run the other way. No potency is given beside an inconclusive call; the fits are too rough.
# Target: Glucagon-like peptide 1 receptor (Homo sapiens) (UniProt P43220)
# Test: qHTS of GLP-1 Receptor Inverse Agonists (Inhibition Mode); also: nearly all actives have a fitted effect of over 55% in size
# Details: HEK293 GLP-1R CRE-luciferase, luminescence, 24 h, GLP-1R form is constitutively active; series mostly up to 38.3 µM
# Summary of the method: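 Inverse agonists were sought by their lowering of basal cAMP reporter luciferase output in HEK293 cells stably carrying constitutively active human GLP-1R, after 24 h compound treatment.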
# Potency is read from the fitted curve at half-maximal effect; tags tell the direction and shape of the fitted curve.
# UniProt P43220, sequence (P43220 whole entry, looked up): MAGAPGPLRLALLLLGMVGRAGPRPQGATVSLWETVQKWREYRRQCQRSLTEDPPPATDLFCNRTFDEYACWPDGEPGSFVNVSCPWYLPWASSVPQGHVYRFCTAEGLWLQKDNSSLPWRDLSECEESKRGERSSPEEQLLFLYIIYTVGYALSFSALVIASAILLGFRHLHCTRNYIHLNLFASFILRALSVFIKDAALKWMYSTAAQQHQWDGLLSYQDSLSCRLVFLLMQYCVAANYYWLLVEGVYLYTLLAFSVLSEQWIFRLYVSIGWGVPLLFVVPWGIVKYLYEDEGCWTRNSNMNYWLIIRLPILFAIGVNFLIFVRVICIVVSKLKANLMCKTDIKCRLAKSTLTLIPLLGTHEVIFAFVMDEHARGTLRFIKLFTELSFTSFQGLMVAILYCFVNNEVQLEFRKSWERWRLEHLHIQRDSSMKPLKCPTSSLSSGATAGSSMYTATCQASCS
row,SMILES,Potency
1,Cc1cc(C)cc(C(=O)N2CC(C)OC(C)C2)c1 (centres undefined),inactive
2,CCc1cccc(NC(=O)CN(c2ccc(OC)cc2)S(=O)(=O)c2c(C)n[nH]c2C)c1,"inconclusive [inhibitor, single point]"
3,COc1cccc(CN(C)C(=O)CN2C(=O)NC(c3ccccc3)(c3ccccc3)C2=O)c1OC,"inconclusive [inhibitor, single point]"
4,CC1CC(N(C(=O)c2ccco2)c2ccccc2)c2ccccc2N1 (centres undefined),"inconclusive [inhibitor, partial curve, poor fit]"
5,O=C(NC1CCN(C(=O)Nc2ccccc2Cl)CC1)c1cccc(F)c1,"inconclusive [inhibitor, partial curve, poor fit]"
6,Cc1cccc(Cn2cnc3ccccc32)c1,inactive
7,CCOP(=O)(OCC)C(C#N)=C1SCN(c2ccc(Cl)cc2)CS1,inactive
8,COc1ccc(N2CCN(C(CNC(=O)C(=O)NCCCn3ccnc3)c3ccco3)CC2)cc1 (centres undefined),"inconclusive [inhibitor, partial curve, poor fit]"
9,Clc1ccccc1Nc1nc(-c2ccncc2)nc2ccccc12,"inconclusive [inhibitor, single point]"
10,CCc1cccc(C)c1NC(=S)NCCc1c(C)[nH]c2ccc(C)cc12,"inconclusive [inhibitor, partial curve, poor fit]"
11,Cc1cccc(C)c1NC(=O)C(c1ccccc1)n1c(=O)c(-c2ccccc2)nc2ccccc21 (centres undefined),"inconclusive [inhibitor, single point]"
12,Cc1cccc(NC(=O)NCc2ccc3c(c2)cc(C)n3C)c1,inactive
13,CN(C)c1ccc(-c2ccnc3c2CC(C)(C(=O)NCC2CCOCC2)O3)cc1 (centres undefined),inactive
14,CC(C)c1ccc(CN2CC(C(=O)Nc3ccccc3)CC2=O)cc1 (centres undefined),"inconclusive [inhibitor, single point]"
15,O=C(Nc1ccc([N+](=O)[O-])cc1)C(c1ccccc1)c1ccccc1,active: 2.24 µM
16,Cc1ccc(N(CC(=O)Nc2cc(C)ccc2C)S(=O)(=O)c2c(C)noc2C)cc1,"inconclusive [inhibitor, single point]"
17,OCCCn1c(CCNc2nc(-c3ccc(F)cc3)cs2)nc2cc(C(F)(F)F)ccc21,"inconclusive [inhibitor, partial curve, poor fit]"
18,C=CC[C@H](CC(=O)N(CCO)Cc1ccccc1)C(=O)N[C@H](COC(=O)[C@@H](CC=C)CC(=O)OC(C)(C)C)c1ccccc1,"inconclusive [inhibitor, partial curve, poor fit]"
19,O=C(Nn1cnnc1)c1cc(-c2ccccn2)nc2ccccc12,inactive
20,Cc1ccccc1-c1csc(C(O)c2cccnc2)n1 (centres undefined),inactive
21,CCOC(=O)Nc1ccccc1C(=O)Nc1cc(C)cc(C)c1,"inconclusive [inhibitor, full curve]"
22,CCOC(=O)c1ccc2c(c1)n(CC)c(/C=C/Nc1ccccc1)[n+]2CC,inactive

row,SMILES,Potency
1,O=C1c2ccccc2C(c2nc3ccccc3[nH]2)N1c1ccccc1 (centres undefined),inactive
2,COc1ccc(S(=O)(=O)N(CC(=O)Nc2cc(Cl)ccc2C)Cc2ccccc2)cc1OC,"inconclusive [inhibitor, single point]"
3,O=C(CC12CC3CC(CC(C3)C1)C2)NC(=S)NCc1ccccc1,inactive
4,COc1ccc(C(=O)CC(c2ccccc2)C2CCCCC2=O)cc1 (centres undefined),"inconclusive [inhibitor, single point]"
5,CCOc1ccc(S(=O)(=O)Nc2cc3c(C(=O)OC)c(COC)oc3c3ccccc23)cc1,"inconclusive [inhibitor, full curve, poor fit]"
6,COc1ccc(CN2CCC(CO)(Cc3ccccc3C(F)(F)F)CC2)c(F)c1,active: 8.91 µM
7,CCOC(=O)[C@@H]1[C@H]2COc3cc(OC)ccc3[C@H]2N2C(=O)N(c3ccc(C)cc3)C(=O)[C@@]12C,"inconclusive [inhibitor, partial curve, poor fit]"
8,O=S(=O)(c1ccc2ccccc2c1)N1CCc2ccccc21,"inconclusive [inhibitor, single point]"
9,CCOC(=O)c1cc(-c2ccc(F)cc2)n(CCC(=O)Nc2nc3ccc(OC)cc3s2)c1C,inactive
10,O=C1Cc2ccccc2C(=O)N1,inactive
11,COc1ccc(CN(C)CC(O)COC(c2ccccc2)c2ccccc2)c(OC)c1OC (centres undefined),"inconclusive [inhibitor, partial curve, poor fit]"
12,COc1ccc(OC)c(S(=O)(=O)NCC(c2ccco2)N2CCc3ccccc3C2)c1 (centres undefined),"inconclusive [inhibitor, single point]"
13,CC(CCc1ccccc1)NC(=O)CN1CCN(Cc2ccc(Cl)cc2)C1=O (centres undefined),"inconclusive [inhibitor, single point]"
14,CCOC(=O)CC(NS(=O)(=O)Cc1ccccc1)c1ccc(C)cc1 (centres undefined),"inconclusive [inhibitor, single point]"
15,CCOC(=S)SCc1cn2ccc(C)cc2n1,"inconclusive [inhibitor, single point]"
16,O=C(NC(Cc1ccccc1)c1nc2ccccc2[nH]1)c1cccc([N+](=O)[O-])c1 (centres undefined),"inconclusive [inhibitor, partial curve, poor fit]"
17,CCCOc1ccc(-c2c(C(=O)N/N=C/c3ccc(C)cc3)nnn2-c2nonc2N)cc1,"inconclusive [inhibitor, partial curve, poor fit]"
18,COc1ccccc1Cc1c(-c2ccc(C)cc2)nc2ccc(Br)cn12,"inconclusive [inhibitor, partial curve]"
19,CC1(C)C(=O)OC(c2c3ccccc3cc3ccccc23)C(C)(C)C1=O (centres undefined),"inconclusive [inhibitor, single point]"
20,O=C(OCC(=O)N1CCCCCC1)c1ccccc1Br,"inconclusive [inhibitor, partial curve, poor fit]"
21,COc1ccc(C(=O)NC(=S)NC(C)(C)C)cc1Br,"inconclusive [inhibitor, partial curve, poor fit]"
22,CCOC(=O)c1c(C)[nH]c(N=Nc2ccccc2Cl)c1C,"inconclusive [inhibitor, single point]"

row,SMILES,Potency
1,CCC(C)NS(=O)(=O)c1ccc(NC(=O)c2c(-c3ccccc3)noc2C)cc1 (centres undefined),"inconclusive [inhibitor, single point]"
2,COc1cccc(CNC(=O)[C@@H]2CCCN2C(=O)[C@H]2CCCCN2C(=O)c2cccs2)c1,inactive
3,O=C(Nc1nccs1)c1ccc(CSc2nnnn2-c2ccccc2)cc1,"inconclusive [inhibitor, single point]"
4,CCC(=O)Nc1cccc(C(=O)/C=C/c2cccs2)c1,"inconclusive [inhibitor, single point]"
5,N#Cc1c(-c2ccccc2Cl)cc(-c2ccccc2)nc1Br,"inconclusive [inhibitor, partial curve, poor fit]"
6,Cc1ccccc1-c1nc(CN2CCC(C(=O)N3CCN(c4ccccn4)CC3)CC2)c(C)o1,"inconclusive [inhibitor, single point]"
7,COc1ccccc1OCc1nc(C#N)c(NCc2ccc(C)cc2)o1,"inconclusive [inhibitor, single point]"
8,O=C(O)c1ccccc1-n1c2ccccc2c2ccccc21,"inconclusive [inhibitor, single point]"
9,O=C(CN1CCCC1)Nc1nc(-c2ccc3c(c2)CCN3C(=O)c2ccccc2F)cs1,"inconclusive [inhibitor, single point]"
10,COc1ccc2[nH]cc(/C=C/C(=O)c3ccccc3)c2c1,"inconclusive [inhibitor, single point]"
11,COc1ccc(NC(=O)CN(C)C(=O)CSCc2c(C)noc2C)cc1,inactive
12,CCc1nc2ccc(C(=O)N(CC)CCN(C)C)cn2c1N(C)CCCc1ccccc1,"inconclusive [inhibitor, single point]"
13,O=C(NC1CCCCC1)c1ccc(CS(=O)Cc2ccccc2Cl)o1 (centres undefined),"inconclusive [inhibitor, full curve, poor fit]"
14,O=C(O)c1cccc(NC2=C(Cl)C(=O)c3ccccc3C2=O)c1,"inconclusive [inhibitor, single point]"
15,COCC(C)n1c(SCC(=O)NC(=O)Nc2ccc3c(c2)OCCO3)nc2ccccc2c1=O (centres undefined),"inconclusive [inhibitor, full curve, poor fit]"
16,CC1(C(=O)NCCc2ccccc2)Cc2c(-c3cccc(C(F)(F)F)c3)ccnc2O1 (centres undefined),"inconclusive [inhibitor, partial curve]"
17,O=C(Nc1ccc(Br)cc1F)N1CC=C(c2c[nH]c3ccccc23)CC1,"inconclusive [inhibitor, full curve, poor fit]"
18,O=C(NCCCN1CCN(Cc2ccccc2)CC1)c1nnc(Cc2c(F)cccc2Cl)o1,"inconclusive [inhibitor, partial curve, poor fit]"
19,C/C=C\C=C\C(=O)Nc1cccc(C2=NOC3(C2)C[C@@H](C(N)=O)N(C(=O)C(c2ccccc2)c2ccccc2)C3)c1 (some centres undefined),"inconclusive [inhibitor, single point]"
20,CCO[C@@H]1OC(C(=O)Nc2ccccc2)=C[C@H](c2ccc3c(c2)OCO3)[C@H]1CCCO,"inconclusive [inhibitor, single point]"
